Measured values reported in patent EP4692072A1, “PHOTOCHROMIC COMPOUND, PROPARGYL ALCOHOL COMPOUND, CURABLE COMPOSITION, OPTICAL ARTICLE, LENS, AND SPECTACLES” (TOKUYAMA CORPORATION, priority 2023, dated 2024).
The name of at least one read-out is uncertain.

Legend:
[1] = Photochromic properties of binder sheet (photochromic layer prepared by binder method); assay type: physicochemical; details: 0.25 mmol per 100 parts by mass resin, after 300 seconds irradiation at 23°C
Method: (§1) • [1] Maximum Absorption Wavelength (λmax): The maximum absorption wavelength after color development, measured using a spectrophotometer (instantaneous multichannel photodetector MCPD3000) manufactured by Otsuka Electronics Co., Ltd. was used as an indicator for the color tone during the color development. • [2] 23°C Color Optical Density (A23): A difference between an absorbancy measured after light irradiation at 23°C for 300 seconds {ε(300)} and an absorbancy without light irradiation ε(0) at the maximum absorption wavelength was used as an indicator for the color optical density. […] 23°C color fading half-life [τ1/2 (sec.)]: A time required for the absorbancy of the sample at the maximum absorption wavelength to decrease to 1/2 of {ε(300)-ε(0)} when the light irradiation was terminated after the light irradiation at 23°C for 300 seconds, was used as an indicator for the color fading speed. The shorter this time, the higher the color fading speed. • [4] Residual rate (A120/A0×100): The obtained photochromic plastic lens was subjected to accelerated deterioration using a xenon weather meter X25 manufactured by Suga Test Instruments Co., Ltd. for 120 hours. Subsequently, the color optical density was evaluated before and after the test, then a color optical density before the test (A0) and a color optical density after the test (A120) were measured, and a ratio (A120/A0) was defined as a residual rate. The residual rate was used as an indicator for a color developing durability. The higher the residual rate, the higher the color developing durability. The results of Examples 26, 50, and Comparative Examples 1 to 8 are summarized in Table 1, and the results of Examples 27 to 49 are summarized in Tables 2 and 3.
A binder sheet was prepared using the following method. The binder sheet consisted of a first optical sheet, a first adhesive layer, a photochromic layer, a second adhesive layer, and a second optical sheet, which are laminated in this order. The first optical sheet and the second optical sheet were made of a polycarbonate sheet with a thickness of 400 µm.
A 2L four-necked flask equipped with agitation blades, a cooling tube, a thermometer, and a nitrogen gas introducing tube was charged with 315 parts by mass of polycarbonate diol having a number-average molecular weight of 1000, 100 parts by mass of isophorone diisocyanate, and 72 parts by mass of toluene, and the mixture was reacted under nitrogen atmosphere at 100°C for 7 hours to synthesize a urethane prepolymer having an isocyanate group on its terminal. After completion of the urethane prepolymer reaction, the reaction liquid was cooled to approximately 0°C, then dissolved in 205 parts by mass of t-butyl alcohol and 382 parts by mass of diethyl ketone, and then the liquid temperature was maintained at 0°C. Subsequently, into this reaction liquid, a mixture of 21.3 parts by mass of bis-(4-aminocyclohexyl)methane as a chain extender and 20 parts by mass of diethyl ketone was dripped over within 30 minutes, and the mixture was reacted at 0°C for 1 hour. Then, into the mixture, 8.1 parts by mass of 1,2,2,6,6-pentamethyl-4-aminopiperidine was dripped, and the mixture was reacted at 0°C for 1 hour to obtain a diethyl ketone solution of a terminal non-reactive urethaneurea resin.
To 100 parts by mass of the obtained terminal non-reactive urethaneurea resin solution, the photochromic compound in Example 1 (represented by formula (28) above), 6.3 parts by mass of 4,4'-methylenebis(cyclohexyl isocyanate) isomer mixture (polyisocyanate compound), furthermore 0.4 part by mass of ethylene bis(oxyethylene)bis[3-(5-tert-butyl-4-hydroxy-m-tolyl)propionate] as an antioxidant, and 0.06 part by mass of DOW CORNING TORAY L-7001 as a surfactant were added, and the mixture was stirred and mixed at room temperature to obtain a photochromic layer forming composition. […]

[2] = Photochromic properties of photochromic laminate (plastic lens) prepared by coating method; assay type: physicochemical; details: 0.25 mmol per 100 g monomers, after 300 seconds irradiation at 23°C, at the maximum absorption wavelength of the same row
Description: First, the photochromic compound obtained in Example 1, a photoinitiator, and a polymerizable compound were mixed to obtain a curable composition.
Polyethylene glycol dimethacrylate (average molecular weight: 736): 42 parts by mass • Polyethylene glycol dimethacrylate (average molecular weight: 536): 12 parts by mass • Trimethylolpropane trimethacrylate: 38 parts by mass γ-methacryloyloxypropyl trimethoxysilane: 2 parts by mass Glycidyl methacrylate: 1 part by mass
Note that the photochromic compound was added to the curable composition so that the amount of the photochromic compound was 0.25 mmol based on 100 g of the total amount of the radical-polymerizable monomers.
Phenylbis(2,4,6-trimethylbenzoyl)phosphine oxide (photoinitiator: Omnirad 819): 0.3 parts by mass Ethylene bis(oxyethylene) bis[3-(5-tert-butyl-4-hydroxy-m-tolyl)propionate] (stabilizer, Irganox 245): 1 part by mass Bis(1,2,2,6,6-pentamethyl-4-piperidyl) sebacate: 3 parts by mass Leveling agent (L7001) manufactured by Dow Corning Toray Co.,Ltd.: 0.1 part by mass
First, a thiourethane-based plastic lens having a central thickness of 2 mm and a refractive index of 1.60 was prepared as the optical substrate. Note that this thiourethane-based plastic lens was pre-treated by alkaline etching with a 10% sodium hydroxide aqueous solution at 50°C for 5 minutes, followed by sufficient washing with distilled water.
A surface of the above-described plastic lens was coated with a moisture-curable primer (product name: TR-SC-P, manufactured by Tokuyama Corporation) at a rotation frequency of 70 rpm for 15 seconds, followed by 1000 rpm for 10 seconds, using a spin coater (1H-DX2, manufactured by MIKASA CO., LTD), Subsequently, about 2 g of the photochromic curable composition obtained above was spin-coated at a rotation frequency of 60 rpm for 40 seconds, followed by 600 rpm for 10 to 20 seconds, to form a photochromic coating layer with a film thickness of 40 µm.
The lens with the surface coated with the photochromic curable composition (photochromic coating layer) was irradiated with light using a metal halide lamp with an output power of 200 mW/cm^2 in a nitrogen gas atmosphere for 90 seconds to cure the coating film. Subsequently, the lens was further heated at 110°C for 1 hour to prepare a photochromic laminate having a photochromic layer.
In the same manner as in Example 26, photochromic laminates were prepared using the photochromic compounds obtained in Examples 2 to 25.
as §1, with “The higher the residual rate, the higher the color developing durability. The results of Examples 26, 50, and Comparative Examples 1 to 8 are summarized in Table 1, and the results of Examples 27 to 49 are summarized in Tables 2 and 3.” left out

SMILES	23°C color fading half-life [1] [s]	23°C color fading half-life [2] [s]
COCCCCC1(CCCCOC)c2cc(Sc3c(C)cccc3C)ccc2-c2c1c1c(c3cc(OC)ccc23)OC(c2ccc(OC)cc2)(c2ccc(N(C)c3ccc(OC)cc3)cc2)C=C1 (stereo not shown) [Example 11]	43	38
CCCCOCCC1(CCOCCCC)c2ccccc2-c2c1c1c(c3cc(OC)c(NC(=O)c4ccccc4)cc23)OC(c2ccc(N(C)c3ccccc3)cc2)(c2ccc(OC)c(F)c2)C=C1 (stereo not shown) [Example 53]	60	56
